Laboratory results from publication PMC6952393.
These are yes or no findings as the source states them, for the method shown. In cells and extracts the contact can be indirect. Some binding calls cover weakened binding; strength is not graded here. One block for each substance: values may come before it.

Protein sequences, listed by entry. Tags and fused reporters are not part of them. Lines headed by an entry give the natural chain unless they say otherwise; changes in a name come on top.
UniProt O43242: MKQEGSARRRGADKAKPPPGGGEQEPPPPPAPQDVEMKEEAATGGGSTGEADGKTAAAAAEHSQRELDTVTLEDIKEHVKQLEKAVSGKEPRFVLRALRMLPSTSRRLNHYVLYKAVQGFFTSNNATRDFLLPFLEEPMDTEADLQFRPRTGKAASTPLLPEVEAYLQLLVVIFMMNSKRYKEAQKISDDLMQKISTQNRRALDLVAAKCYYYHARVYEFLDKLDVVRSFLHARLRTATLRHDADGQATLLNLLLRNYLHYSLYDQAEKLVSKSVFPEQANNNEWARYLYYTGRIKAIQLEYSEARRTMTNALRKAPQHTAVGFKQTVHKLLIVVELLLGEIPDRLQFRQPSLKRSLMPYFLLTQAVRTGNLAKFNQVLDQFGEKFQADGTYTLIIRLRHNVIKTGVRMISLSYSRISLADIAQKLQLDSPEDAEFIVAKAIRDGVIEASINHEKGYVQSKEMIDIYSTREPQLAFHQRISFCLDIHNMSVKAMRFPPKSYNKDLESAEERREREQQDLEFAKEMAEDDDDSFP
UniProt O75340: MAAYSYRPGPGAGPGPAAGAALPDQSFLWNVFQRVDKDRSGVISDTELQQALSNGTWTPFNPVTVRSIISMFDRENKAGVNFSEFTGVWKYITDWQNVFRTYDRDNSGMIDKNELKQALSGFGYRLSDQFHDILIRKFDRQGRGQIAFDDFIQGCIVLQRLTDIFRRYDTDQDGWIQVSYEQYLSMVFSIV

How the values were obtained:
GFP-Rpn3 (human) [1] = target: GFP-Rpn3 (human) (UniProt O43242); assay: co-IP; HEK293T transfected with HA-ALG-2 mutants and eGFP-Rpn3, RIPA lysate; beads of this panel (GFP-Trap or HA antibody) not told
HA-Rpn3 (human) = HA-Rpn3 (human) (UniProt O43242); assay: co-IP; HEK293T transfected with HA-Rpn3 or HA-ALG-2 for 48 h, RIPA lysate, HA tag antibody and protein A resin overnight at 4 °C; endogenous partner detected by western blot
HA-ALG-2 (human) = HA-ALG-2 (human) (UniProt O75340); assay: as above
GFP-Rpn3 (human) [2] = target: GFP-Rpn3 (human) (UniProt O43242); assay: co-IP; HEK293T co-transfected with GFP-Rpn3 and HA-ALG-2 for 48 h, RIPA lysate, GFP-Trap beads overnight at 4 °C, western blot
His-tagged Rpn3 (human) = His-tagged Rpn3 (human) (UniProt O43242); assay: pull-down; His-tag pull-down; E. coli cells with His-Rpn3 and GST-ALG-2 mixed in binding buffer (50 mM Tris-HCl, 500 mM NaCl, pH 8.0), lysed, Ni Sepharose beads, washed with 20 mM imidazole; SDS-PAGE, coomassie blue

binding (GFP-Rpn3 (human) [1]): no binding
Substance: HA-ALG-2 E114D (from UniProt O75340 1-191)

binding (HA-Rpn3 (human)): binds
Substance: endogenous ALG-2 (HEK293T) (from UniProt O75340 1-191)

binding (GFP-Rpn3 (human) [2]): binds
Substance: HA-ALG-2 (from UniProt O75340 1-191)

The remaining lines, values behind:

Substance: HA-ALG-2 E47D (from UniProt O75340 1-191)
binding (GFP-Rpn3 (human) [1]): no binding

Substance: endogenous Rpn3 (HEK293T) (from UniProt O43242 1-534)
binding (HA-ALG-2 (human)): binds

Substance: GST-tagged ALG-2 (from UniProt O75340 1-191)
binding (His-tagged Rpn3 (human)): binds

Substance: HA-ALG-2 D169A (from UniProt O75340 1-191)
binding (GFP-Rpn3 (human) [1]): no binding
